In PubChem BioAssay AID463173 (ICCB-Longwood Screening Facility, Harvard Medical School, 2010):
Screen size: about 52,000 compounds; about 4,300 (8.3%) were called active. No stated cut-off is given here; in the data, active means survival mostly below about 52% (no sharp cut-off); inactive means mostly above about 56%. Some of the results follow.

These compounds were tested on DeltatarO mutant (assay: growth inhibition of S. aureus wild type versus tarO mutant, primary screen, teichoic acid synthesis inhibitors, RN4220, OD600 (AID 463173)). Conditions: OD600, 18 h, hits give low values, screened at 18.75 µg/mL (by protocol).
With `COc1ccccc1C(=O)Nc1ccc2nc(N3CCC(C)CC3)cc(C)c2c1` the survival was active: 3%. With `CC(=O)c1cccc(NC(=O)Cn2c(=O)c(CNc3ccc(C)cc3)cc3cc4c(cc32)OCCO4)c1` the survival was inactive: 91%. For `O=C(CN1CCCC1)N/N=C/c1ccc(-c2cccc(Cl)c2Cl)o1`, the survival was inactive: 86%. In the case of `Cc1ccc(-n2nc3c(=O)n(CCCC(=O)NCCc4ccccc4)nc(C)c3c2C)cc1`, the survival is reported as inactive: 112%. With `CC(C)c1nc2ccc(C(=O)NCc3ccc(N(C)C)cc3)cc2o1` the survival was inactive: 85%. With `CCOC(=O)N1CCN(c2ncnc3c2cnn3-c2ccccc2)CC1` the survival was inactive: 59%. With `Cc1cccc(CCNC(=O)CCS(=O)(=O)c2cc3c(cc2Cl)NC(=O)CO3)c1` the survival was inactive: 95%. With `COc1cccc(CNC(=O)C2CCN(S(=O)(=O)c3ccc4c(ccn4C)c3)CC2)c1` the survival was inactive: 81%. With `COc1ccc(-c2cn3cccnc3n2)cc1NC(=O)c1c(F)cccc1F` the survival was inactive: 83%. `CSc1ccc(C2c3[nH]c4ccccc4c3CCN2C(=O)CCc2ccccc2)cc1` (stereo not given) was tested, and the survival was inactive: 87%. For `CCC(=O)NC1CCC(c2ccccc2)CC1` (stereo not given), the survival was inactive: 97%. For `COc1cc(Cl)c(C)cc1NC(=O)CCn1c(=O)c2cccn2c2cccnc21`, the survival was inactive: 83%. In the case of `Cc1ccc(N2CC(c3nnc(NC(=O)c4ccco4)s3)CC2=O)cc1Cl` (stereo not given), the survival is reported as inactive: 77%. `O=S(=O)(c1ccc(Br)cc1)c1nnn2c1nc(NC1CCCCCC1)c1sccc12` was tested, and the survival was inactive: 63%. `CCN1CCN(C(c2cccc(F)c2)c2c(O)cc(C)n(CCOC)c2=O)CC1` (stereo not given) was tested, and the survival was inactive: 73%. For `COc1ccc(Cl)cc1NC(=O)c1cc(S(=O)(=O)N2CCC(C)CC2)cn1C`, the survival was inactive: 83%. `CCc1nc2cccnc2n1-c1ccc(CC(=O)Nc2ccccc2Cl)cc1` was tested, and the survival was inactive: 67%. In the case of `CCOc1ccc(CNC(=O)CCC(=O)N2CC3CCCN3c3ccccc32)cc1` (stereo not given), the survival is reported as inactive: 92%. In the case of `Cc1cccc(NC(=O)CSc2nc3c(oc4ccccc43)c(=O)n2Cc2ccco2)c1`, the survival is reported as inactive: 61%. For `CC(C)C(=O)Nc1ccc2nc(SCC(=O)N3CCOCC3)sc2c1`, the survival was inactive: 81%. `Cc1cc(NS(=O)(=O)c2ccc3nc(-c4ccccc4)[nH]c3c2)ccc1Br` was tested, and the survival was active: -2%. For `CN(C)c1nc2ccc(OCCN3CCCCC3)cc2s1`, the survival was inactive: 87%. In the case of `COc1ccccc1-c1noc(CSc2nnc(Cc3ccccc3)n2-c2ccc(C)c(C)c2)n1`, the survival is reported as inactive: 48%. With `Cc1ccc(C)n1-c1nnc(N2CCC(C(=O)NCc3ccc(F)cc3)CC2)s1` the survival was inactive: 104%. With `O=C(Nc1cc(Cl)ccc1Cl)c1cc(S(=O)(=O)NCCc2ccccc2)ccc1F` the survival was inactive: 128%. For `Cc1ccc(CN2COc3ccc4c(C)cc(=O)oc4c3C2)cc1`, the survival was inactive: 69%. In the case of `Cc1nc(N2CCOCC2)c2c(C(=O)N3CCN(c4ccccc4F)CC3)c(C)oc2n1`, the survival is reported as inactive: 101%. In the case of `Cc1ccc(C(=O)N(Cc2ccco2)Cc2sccc2C)cc1`, the survival is reported as inactive: 44%. With `O=C(NCc1ccc(Cl)cc1)c1cc2c(s1)-c1ccccc1SC2` the survival was inactive: 58%. For `COc1ccc(-c2nc3c(c(SCC(=O)Nc4cccc(O)c4)n2)Cc2c(CO)cnc(C)c2O3)cc1`, the survival was inactive: 108%. `CC1CCc2onc(C(=O)N3CCN(c4ccccc4)CC3)c2C1` (stereo not given) was tested, and the survival was inactive: 117%. `O=C(COc1ccccc1F)Nc1ccccc1C(=O)OCc1cc(=O)n2nc(C3CC3)sc2n1` was tested, and the survival was inactive: 88%. In the case of `COC(=O)COc1ccc(C2C(C(=O)OC)=C(C)NC3=C2C(=O)c2ccccc23)cc1OC` (stereo not given), the survival is reported as active: 29%. For `Cn1nnnc1SCCCNCc1ccc(Cl)cc1`, the survival was inactive: 68%. With `COC(=O)c1cc(NC(=O)CCc2c(C)nc3c(c(C)nn3C(C)(C)C)c2C)cc(C(=O)OC)c1` the survival was inactive: 77%. With `COc1ccc(Nc2oc(-c3ccc(COc4cccc(C)c4)o3)nc2C#N)cc1` the survival was inactive: 109%. With `COc1ccc(CCNC(=O)Cc2c(C)c3cc4c(C(C)(C)C)coc4c(C)c3oc2=O)cc1OC` the survival was inactive: 62%. For `CCN(CC)CC#CC1(O)CCCCC1`, the survival was inactive: 117%. For `Cc1cc(C)c2c(c1)NC(=O)C2(O)c1c[nH]c2ccccc12` (stereo not given), the survival was inactive: 77%. For `Cc1cccc(S(=O)(=O)Nc2cccc(-c3ccc(N4CCCCC4)nn3)c2)c1`, the survival was inactive: 84%. In the case of `CCN(CC)C(=O)Cn1c(=O)n(-c2ccc(Cl)c(Cl)c2)c(=O)c2c(C)c(C(=O)N(CC)CC)sc21`, the survival is reported as inactive: 83%. In the case of `COc1cccc(OCc2nnc(SCC(=O)O)o2)c1`, the survival is reported as inactive: 81%. With `CCc1nnc2c(N3CCN(c4cccc(C)c4)C(C)C3)nc3ccccc3n12` (stereo not given) the survival was inactive: 73%. With `COc1cc(OC)cc(C(=O)Nc2cc3c(cc2N2CCCCC2)n(C)c(=O)n3C)c1` the survival was inactive: 83%. `COc1ccc(-c2c(C#N)c(SCC(=O)Nc3cccc(Cl)c3)nc(C)c2C(=O)Nc2ccccc2)cc1OC` was tested, and the survival was inactive: 139%.
